Assay results from article PMC7694937.
These are yes or no findings as the source states them, for the method shown. In cells and extracts the contact can be indirect. Some entries that bind do so weakly or less than the wild type. For some of these results: Sequences can lack the tags named with a protein.

Chains of the proteins cited; added tags and fusions are not shown. Lines headed by an entry give the natural chain unless they say otherwise; changes in a name come on top.
UniProt Q96P20: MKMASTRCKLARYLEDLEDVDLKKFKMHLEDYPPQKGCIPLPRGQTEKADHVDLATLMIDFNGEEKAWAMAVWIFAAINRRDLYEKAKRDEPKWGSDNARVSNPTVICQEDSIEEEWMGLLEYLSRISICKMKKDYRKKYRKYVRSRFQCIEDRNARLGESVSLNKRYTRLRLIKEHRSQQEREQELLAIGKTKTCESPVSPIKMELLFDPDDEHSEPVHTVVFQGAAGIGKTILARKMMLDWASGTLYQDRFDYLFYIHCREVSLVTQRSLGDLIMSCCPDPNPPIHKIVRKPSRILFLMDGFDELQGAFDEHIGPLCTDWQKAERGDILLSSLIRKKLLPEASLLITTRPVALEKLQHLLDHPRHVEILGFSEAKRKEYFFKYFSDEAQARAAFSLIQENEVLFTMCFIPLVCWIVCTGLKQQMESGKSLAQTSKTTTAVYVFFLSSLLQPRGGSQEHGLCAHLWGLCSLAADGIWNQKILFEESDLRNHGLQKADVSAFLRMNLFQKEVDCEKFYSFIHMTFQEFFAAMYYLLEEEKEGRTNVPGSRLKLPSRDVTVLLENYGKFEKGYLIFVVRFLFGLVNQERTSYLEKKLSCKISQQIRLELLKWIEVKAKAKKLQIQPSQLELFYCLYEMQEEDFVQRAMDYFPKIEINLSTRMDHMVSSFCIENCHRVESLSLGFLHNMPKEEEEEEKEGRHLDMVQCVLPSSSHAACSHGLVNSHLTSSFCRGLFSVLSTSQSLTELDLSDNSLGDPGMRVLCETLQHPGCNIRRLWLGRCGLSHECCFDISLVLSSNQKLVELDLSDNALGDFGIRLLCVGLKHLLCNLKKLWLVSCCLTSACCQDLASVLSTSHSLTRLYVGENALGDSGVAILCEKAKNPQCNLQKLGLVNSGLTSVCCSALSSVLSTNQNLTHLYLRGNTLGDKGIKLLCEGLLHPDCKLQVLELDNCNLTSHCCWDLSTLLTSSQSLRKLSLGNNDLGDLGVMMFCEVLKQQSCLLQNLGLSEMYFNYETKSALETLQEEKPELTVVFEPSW
UniProt P49023: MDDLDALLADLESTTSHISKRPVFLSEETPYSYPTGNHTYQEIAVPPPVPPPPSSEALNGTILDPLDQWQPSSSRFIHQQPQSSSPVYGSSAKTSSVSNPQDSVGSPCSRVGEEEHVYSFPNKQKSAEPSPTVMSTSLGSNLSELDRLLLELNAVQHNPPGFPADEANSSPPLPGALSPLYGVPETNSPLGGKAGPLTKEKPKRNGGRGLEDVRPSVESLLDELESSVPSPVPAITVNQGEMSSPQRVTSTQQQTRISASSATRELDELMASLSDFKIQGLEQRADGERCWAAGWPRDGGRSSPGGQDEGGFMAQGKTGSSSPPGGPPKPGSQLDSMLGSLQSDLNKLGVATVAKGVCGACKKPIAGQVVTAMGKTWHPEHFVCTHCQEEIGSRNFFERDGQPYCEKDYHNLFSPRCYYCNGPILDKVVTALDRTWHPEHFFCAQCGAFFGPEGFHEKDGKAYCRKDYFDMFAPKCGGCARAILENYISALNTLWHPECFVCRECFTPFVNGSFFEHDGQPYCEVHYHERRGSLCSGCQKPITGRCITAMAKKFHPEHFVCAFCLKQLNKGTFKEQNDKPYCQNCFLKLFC
UniProt Q8R4B8: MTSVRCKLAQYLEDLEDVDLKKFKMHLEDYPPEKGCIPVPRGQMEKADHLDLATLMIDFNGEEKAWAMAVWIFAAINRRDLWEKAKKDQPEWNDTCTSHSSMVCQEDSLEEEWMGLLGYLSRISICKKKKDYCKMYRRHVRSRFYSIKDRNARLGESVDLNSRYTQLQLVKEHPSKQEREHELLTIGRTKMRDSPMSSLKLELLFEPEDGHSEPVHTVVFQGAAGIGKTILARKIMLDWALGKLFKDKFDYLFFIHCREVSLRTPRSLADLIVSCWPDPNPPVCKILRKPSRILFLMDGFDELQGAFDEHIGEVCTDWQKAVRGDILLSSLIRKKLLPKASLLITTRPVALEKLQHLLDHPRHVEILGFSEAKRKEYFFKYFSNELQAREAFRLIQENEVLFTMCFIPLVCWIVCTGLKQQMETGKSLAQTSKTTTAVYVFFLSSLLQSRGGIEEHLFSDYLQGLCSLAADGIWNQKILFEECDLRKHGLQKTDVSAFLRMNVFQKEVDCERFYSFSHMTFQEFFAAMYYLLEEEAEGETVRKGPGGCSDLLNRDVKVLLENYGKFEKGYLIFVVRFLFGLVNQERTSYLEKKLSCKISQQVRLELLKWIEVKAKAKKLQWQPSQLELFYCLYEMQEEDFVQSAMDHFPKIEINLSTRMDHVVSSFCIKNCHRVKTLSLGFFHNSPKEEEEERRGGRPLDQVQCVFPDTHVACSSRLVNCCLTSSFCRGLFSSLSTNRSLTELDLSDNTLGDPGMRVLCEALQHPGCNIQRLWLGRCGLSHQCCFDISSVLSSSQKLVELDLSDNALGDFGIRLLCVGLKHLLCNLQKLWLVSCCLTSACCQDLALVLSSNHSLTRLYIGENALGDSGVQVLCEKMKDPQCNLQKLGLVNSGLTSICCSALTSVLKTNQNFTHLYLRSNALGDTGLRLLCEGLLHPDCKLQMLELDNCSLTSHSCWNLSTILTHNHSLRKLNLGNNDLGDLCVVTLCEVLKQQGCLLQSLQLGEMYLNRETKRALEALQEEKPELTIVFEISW
UniProt Q8VI36: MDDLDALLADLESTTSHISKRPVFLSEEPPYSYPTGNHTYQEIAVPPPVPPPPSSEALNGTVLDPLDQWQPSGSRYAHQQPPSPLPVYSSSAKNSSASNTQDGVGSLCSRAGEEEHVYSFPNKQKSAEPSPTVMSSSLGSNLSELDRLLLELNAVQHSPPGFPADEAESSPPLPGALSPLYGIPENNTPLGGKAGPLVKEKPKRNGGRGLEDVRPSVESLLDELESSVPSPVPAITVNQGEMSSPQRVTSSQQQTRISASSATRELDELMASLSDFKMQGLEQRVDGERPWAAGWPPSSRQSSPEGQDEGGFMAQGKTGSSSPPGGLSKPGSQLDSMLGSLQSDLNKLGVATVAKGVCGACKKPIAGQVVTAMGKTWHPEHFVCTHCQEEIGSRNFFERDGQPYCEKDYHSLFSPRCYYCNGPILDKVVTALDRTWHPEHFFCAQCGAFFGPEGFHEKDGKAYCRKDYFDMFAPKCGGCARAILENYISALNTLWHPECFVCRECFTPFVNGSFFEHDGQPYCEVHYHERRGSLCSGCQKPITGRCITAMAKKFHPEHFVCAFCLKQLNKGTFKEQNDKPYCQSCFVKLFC

Experiments:
[1] = target: Flag-NLRP3 (human) (UniProt Q96P20); test: co-IP; HEK293T cells co-transfected with Flag- and HA-tagged plasmids; lysis in 50 mM Tris-HCl pH 7.5, 300 mM NaCl, 1% Triton-X, 5 mM EDTA, 10% glycerol; IP with anti-Flag antibody and Protein-G Sepharose, immunoblot with anti-HA and anti-Flag; in some panels cells treated with DMSO or ATP (5 mM) for 2 h; Fig. 6d-g shown as pairs of IPs whose antibodies the legend does not name
[2] = target: T1, Flag-P2X7R (UniProt Q99572); test: as above
T1 sequence: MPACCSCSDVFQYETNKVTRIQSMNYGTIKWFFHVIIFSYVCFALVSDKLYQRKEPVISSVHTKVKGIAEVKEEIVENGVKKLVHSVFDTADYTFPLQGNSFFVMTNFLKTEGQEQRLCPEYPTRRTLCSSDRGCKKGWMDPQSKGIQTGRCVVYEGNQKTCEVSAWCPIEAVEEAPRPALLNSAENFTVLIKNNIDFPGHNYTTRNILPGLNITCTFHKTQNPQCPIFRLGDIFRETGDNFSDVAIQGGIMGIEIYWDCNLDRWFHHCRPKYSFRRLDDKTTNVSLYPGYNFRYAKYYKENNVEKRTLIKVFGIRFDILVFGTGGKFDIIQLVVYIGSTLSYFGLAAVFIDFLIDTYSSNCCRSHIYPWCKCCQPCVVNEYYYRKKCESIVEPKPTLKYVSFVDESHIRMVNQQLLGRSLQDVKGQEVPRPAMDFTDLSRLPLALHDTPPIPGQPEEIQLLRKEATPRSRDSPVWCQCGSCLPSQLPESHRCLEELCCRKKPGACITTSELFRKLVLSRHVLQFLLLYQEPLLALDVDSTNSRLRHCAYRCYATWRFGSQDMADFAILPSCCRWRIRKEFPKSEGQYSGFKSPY

[3] = target: T2, Flag-USP13 (human) (UniProt Q92995); test: as above
T2 sequence: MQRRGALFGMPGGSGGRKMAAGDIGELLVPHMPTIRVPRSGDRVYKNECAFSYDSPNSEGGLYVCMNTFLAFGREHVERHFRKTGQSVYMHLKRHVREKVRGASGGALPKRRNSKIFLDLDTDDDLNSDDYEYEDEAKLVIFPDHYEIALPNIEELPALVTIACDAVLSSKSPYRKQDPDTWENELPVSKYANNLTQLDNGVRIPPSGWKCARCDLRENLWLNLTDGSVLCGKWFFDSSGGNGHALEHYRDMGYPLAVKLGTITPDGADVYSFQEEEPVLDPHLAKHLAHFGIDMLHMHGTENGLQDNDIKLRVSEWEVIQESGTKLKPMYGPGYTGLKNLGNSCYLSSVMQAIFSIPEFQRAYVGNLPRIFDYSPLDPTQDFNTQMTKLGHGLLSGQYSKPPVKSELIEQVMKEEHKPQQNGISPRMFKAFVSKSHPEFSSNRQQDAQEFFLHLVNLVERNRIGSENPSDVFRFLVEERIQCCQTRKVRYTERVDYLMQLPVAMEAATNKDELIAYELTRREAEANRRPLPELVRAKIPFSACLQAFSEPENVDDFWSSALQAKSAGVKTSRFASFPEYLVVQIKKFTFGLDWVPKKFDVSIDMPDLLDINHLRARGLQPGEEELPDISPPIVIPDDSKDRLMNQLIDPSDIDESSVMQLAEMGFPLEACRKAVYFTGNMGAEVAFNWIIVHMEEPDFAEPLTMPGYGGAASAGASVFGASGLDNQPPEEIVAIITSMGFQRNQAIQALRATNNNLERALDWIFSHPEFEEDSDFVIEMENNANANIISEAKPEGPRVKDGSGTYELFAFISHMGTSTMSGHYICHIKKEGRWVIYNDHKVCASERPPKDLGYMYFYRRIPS

[4] = target: T3, Flag-USP13(1–300) (human) (UniProt Q92995); test: as above
T3 sequence: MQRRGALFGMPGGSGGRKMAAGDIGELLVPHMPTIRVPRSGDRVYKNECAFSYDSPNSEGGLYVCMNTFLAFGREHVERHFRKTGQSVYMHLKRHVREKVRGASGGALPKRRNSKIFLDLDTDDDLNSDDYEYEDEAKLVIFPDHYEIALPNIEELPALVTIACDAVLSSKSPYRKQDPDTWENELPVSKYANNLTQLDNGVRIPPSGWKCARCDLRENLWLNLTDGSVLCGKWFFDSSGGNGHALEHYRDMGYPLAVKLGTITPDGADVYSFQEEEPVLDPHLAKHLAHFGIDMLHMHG

[5] = target: T4, Flag-USP13(301–624) (human) (UniProt Q92995); test: as above
T4 sequence: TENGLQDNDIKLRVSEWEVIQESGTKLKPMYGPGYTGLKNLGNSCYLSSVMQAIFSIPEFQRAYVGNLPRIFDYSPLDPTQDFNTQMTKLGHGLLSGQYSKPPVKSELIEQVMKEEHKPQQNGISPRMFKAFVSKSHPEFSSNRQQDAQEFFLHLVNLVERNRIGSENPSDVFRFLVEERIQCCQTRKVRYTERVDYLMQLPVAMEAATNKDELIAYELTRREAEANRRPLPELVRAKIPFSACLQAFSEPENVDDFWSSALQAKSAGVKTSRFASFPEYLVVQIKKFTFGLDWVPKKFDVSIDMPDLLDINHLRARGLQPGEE

[6] = target: T5, Flag-USP13(301–863) (human) (UniProt Q92995); test: as above
T5 sequence: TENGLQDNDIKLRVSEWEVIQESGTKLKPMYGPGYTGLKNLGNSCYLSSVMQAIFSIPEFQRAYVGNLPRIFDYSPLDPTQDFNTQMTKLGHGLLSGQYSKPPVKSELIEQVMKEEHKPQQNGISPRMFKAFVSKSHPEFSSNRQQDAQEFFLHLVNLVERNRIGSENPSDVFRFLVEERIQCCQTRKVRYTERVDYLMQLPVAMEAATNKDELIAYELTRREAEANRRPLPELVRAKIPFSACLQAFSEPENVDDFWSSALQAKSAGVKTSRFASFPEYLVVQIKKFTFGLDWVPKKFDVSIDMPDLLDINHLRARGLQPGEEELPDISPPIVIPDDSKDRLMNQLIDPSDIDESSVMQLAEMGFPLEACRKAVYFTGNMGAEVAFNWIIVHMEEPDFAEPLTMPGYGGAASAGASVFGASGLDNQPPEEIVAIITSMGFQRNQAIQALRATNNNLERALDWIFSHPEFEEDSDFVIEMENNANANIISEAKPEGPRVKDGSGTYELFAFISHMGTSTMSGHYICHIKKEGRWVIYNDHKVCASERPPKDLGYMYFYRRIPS

[7] = target: T6, Flag-USP13(625–863) (human) (UniProt Q92995); test: as above
T6 sequence: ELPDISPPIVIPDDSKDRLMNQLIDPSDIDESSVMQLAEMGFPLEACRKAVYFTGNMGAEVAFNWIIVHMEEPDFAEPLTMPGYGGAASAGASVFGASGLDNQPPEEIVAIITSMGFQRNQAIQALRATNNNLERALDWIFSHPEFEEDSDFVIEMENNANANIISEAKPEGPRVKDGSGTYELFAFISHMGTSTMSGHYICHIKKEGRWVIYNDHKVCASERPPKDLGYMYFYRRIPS

[8] = target: NLRP3 (endogenous, THP-1 macrophages) (human (endogenous in THP-1)) (UniProt Q96P20); test: co-IP; endogenous proteins in TPA-differentiated THP-1 macrophages, treated with DMSO/mock or ATP (5 mM; 2 h, or 30 and 60 min); lysis in 50 mM Tris-HCl pH 7.5, 150 mM NaCl, 0.1% Nonidet P40, 5 mM EDTA, 10% glycerol; precipitating antibody not named
[9] = target: T7, P2X7R (endogenous, THP-1 macrophages) (human (endogenous in THP-1)) (UniProt Q99572); test: as above
T7 sequence: T1 sequence

[10] = target: GST-Paxillin (human) (UniProt P49023); test: pull-down; 10 μg purified GST fusion protein on glutathione-Sepharose beads incubated with lysate of HEK293T cells transfected with the Flag-tagged partner, 4 h at 4 °C; washed three times; immunoblot with anti-GST and anti-Flag; only the target purified
[11] = target: NLRP3 (endogenous, mouse BMDMs) (mouse (endogenous in BMDMs)) (UniProt Q8R4B8); test: co-IP; endogenous proteins in LPS-primed (1 μg/ml, 6 h) BMDMs of C57BL/6 mice, stimulated with DMSO or ATP (5 mM) for 30 min; precipitating antibody not named

HA-Paxillin(Y31A) (from UniProt P49023 1-591)
binding [1]: binds
binding [2]: binds
binding [3]: no binding

HA-Paxillin(Y118A) (from UniProt P49023 1-591)
binding [1]: no binding
binding [2]: binds
binding [3]: binds

HA-PYRIN (from UniProt Q96P20 1-93) (domain or fragment)
binding [3]: no binding

HA-NLRP3 (from UniProt Q96P20 1-1036)
binding [3]: binds
binding [4]: no binding
binding [5]: no binding
binding [6]: binds
binding [7]: binds

Paxillin (endogenous, THP-1 macrophages) (from UniProt P49023 1-591)
binding [8]: binds
binding [9]: binds

Flag-NLRP3 (from UniProt Q96P20 1-1036)
binding [10]: binds

Paxillin (endogenous, mouse BMDMs) (from UniProt Q8VI36 1-591)
binding [11]: binds
